Among all 370,000 compounds or so, about 500 (0.14%) were called active. The shares of active, inactive and inconclusive entries below differ from those in the screen. Calls come from the whole dose curve; as a rule, active = well fitted activation curve with a large enough effect; inconclusive = small, poorly fitted or top-dose-only effect; inactive = no such curve, though single readings can be large or run the other way. Potencies of inconclusive entries are left out as doubtful fits.
Assay: qHTS of alpha-syn Inhibitors; note: nearly all actives have a fitted effect of over 65% in size; for growth rescue (activation): % of control where 0% means no effect
Settings: Yeast expressing alpha-synuclein, BacTiter-Glo, 24 h; Potency: growth rescue unless noted; growth rescue (activation): at 46.1 µM (top of the series) unless noted
Outline: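 Readout is rescue of growth in alpha-synuclein-expressing yeast, so inhibitors of toxicity appear as activators. Growth after 24 hr at 30 deg C in galactose medium is quantified by luminescence.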
Potency is the fitted concentration of half-maximal effect; tags give direction and shape of the fitted curve.

Row | SMILES | Potency | growth rescue (activation)
1 | CCCN1CNc2c(c(=O)[nH]c(=S)n2CCc2c(OC)cccc2OC)C1 | inactive | 
2 | O=C(NC1CCCN(c2ccc(C(F)(F)F)cn2)C1)c1ccncc1 (stereo not given) | inconclusive [activator, single point] | 
3 | CC(C)(C)NC(=O)COC(=O)C1c2ccccc2Oc2ccccc21 | inconclusive [activator, single point] | 
4 | O=C(Nc1cccc(Cl)c1)OCCOCCOC(=O)Nc1cccc(Cl)c1 |  | inconclusive: -42.4% [activator]
5 | Nc1ccc(Nc2ccccc2)c(Cl)c1 | inactive | 
6 | O=C(CNc1ccc(F)cc1F)NC(=O)NCc1ccco1 | inconclusive [activator, single point] | 
7 | O=C(O/N=C(/c1ccccc1)c1ccncc1)c1ccccc1[N+](=O)[O-] | inconclusive [activator, full curve] | 
8 | Cc1ccc(-c2csc3nc[nH]c(=S)c23)cc1C | inconclusive [activator, single point] | 
9 | CCCN(CC(=O)Nc1ccccc1OC)C(=O)CSc1ccc(Br)cc1C | inconclusive [activator, partial curve] | 
10 | O=C(O/N=C1\CCCc2ccccc21)c1cccc(Cl)c1 | inactive | 
11 | Cn1cnc2c1c(=O)n(Cc1cccc(Br)c1)c(=O)n2C | inconclusive [activator, single point] | 
12 | C=CCOc1ccc2c(c1)CCC1C2CCC2(C)C(O)C(O)CC12 (stereo not given) | inconclusive [activator, single point] | 
13 | CCOC(=O)c1cc2sccc2n1CCCN1C(=O)c2ccccc2C1=O | inconclusive [activator, partial curve] | 
14 | CCCCCC/C(=N/O)c1ccccn1 | inconclusive [activator, single point] | 
15 | O=C(c1ccccc1Br)N1CCC(c2nc3ccccc3s2)CC1 | inconclusive [activator, single point] | 
16 | Cc1ccc(Cn2cc(CCC(=O)O)c3ccccc32)cc1 | inconclusive [activator, single point] | 
17 | CS(=O)(=O)N1N=C(c2ccc3nccnc3c2)CC1c1ccccc1 (stereo not given) | inactive | 
18 | CC(C)(C)[C@@H]1C=C(C(=O)Nc2ccccc2)O[C@H](OCc2ccc(CO)cc2)C1 | inconclusive [activator, single point] | 
19 | Cc1occc1C(=O)Nc1cccc(Cl)c1Cl | inactive | 
20 | Cc1cc(C(=O)N2CCc3c([nH]c4ccccc34)C2c2cccc(Cl)c2)nn1C (stereo not given) | inactive | 
21 | COc1nc(-c2ccccc2)c2cc(C)ccc2n1 | inactive | 
22 | CCCCN(C)C(=O)c1sc2ncn(CC)c(=O)c2c1C | inconclusive [activator, single point] | 
23 | CC(NC(=O)C1CCCN(C(=O)c2ccc(Cl)cc2)C1)c1cccc(C(F)(F)F)c1 (stereo not given) | inconclusive [activator, single point] | 

Row | SMILES | Potency | growth rescue (activation)
24 | CCOc1ccc(N(CC)C(=O)c2noc3c2COc2ccc(C)cc2-3)cc1 | inconclusive [activator, single point] | 
25 | Cc1ccn2c(c1)nc(=O)c1cc(S(=O)(=O)N3CCC(C)CC3)c(Cl)cc12 | inconclusive [activator, single point] | 
26 | COc1cccc(NC(=O)CSc2nnc(-c3cccs3)n2C)c1 | inactive | 
27 | CCOc1ccccc1-c1nnc(SCc2ccc(Cl)cc2)o1 | inconclusive [activator, single point] | 
28 | CN(C)c1ccc(-c2ccc3ccccc3n2)cc1 | inconclusive [activator, single point] | 
29 | CC(C)N(C(=O)[C@H]1C[C@H](CC(=O)NC(C)(C)C)C(=O)N2CCc3c([nH]c4ccc(Cl)cc34)[C@]12C)C(C)C | inconclusive [activator, single point] | 
30 | CC(C)C1C(=O)N(Cc2cn(CCC3OCCO3)nn2)CCS(=O)(=O)N1Cc1ccc(-c2ccc(Cl)cc2)cc1 (stereo not given) | inconclusive [activator, single point] | 
31 | CC1=NN(C(=O)c2ccoc2C)C(O)(C(F)(F)F)C1 (stereo not given) | inconclusive [activator, single point] | 
32 | O=C(Nc1ccc(COc2ccccc2)cc1)Nc1cccc(C(=O)O)c1 | inconclusive [activator, single point] | 
33 | O=[N+]([O-])c1ccc2nc(-c3ccccn3)[nH]c2c1 | inconclusive [activator, single point] | 
34 | CCN(CC)S(=O)(=O)c1ccc(C(=O)Nc2nnc(C(C)C)s2)cc1 | inconclusive [activator, single point] | 
35 | Cc1ccc2c(c1)N(C(=O)CCC(=O)NC1CCCCCC1)CC(C)O2 (stereo not given) | inconclusive [activator, single point] | 
36 | O=C(O)CCc1ccc(-c2cccs2)n1-c1ccc(C(=O)O)cc1 | inconclusive [activator, single point] | 
37 | CCOC(=O)Cc1csc(NC(=O)c2ccc(NC(C)=O)cc2)n1 | inactive | 
38 | O=C(C[n+]1ccc2ccccc2c1)c1ccc(O)c(O)c1 | inactive | 
39 | Cc1ccc(-c2cc(C(=O)N/N=C/c3c[nH]c4ccccc34)n[nH]2)o1 | inactive | 
40 | CC(C)N(CCn1cnc2c([nH]c3ccccc32)c1=O)C(C)C | inactive | 
41 | COc1ccccc1-c1sc2cc3c(cc2c1C#CCO)OCO3 | inactive | 
42 | O=C(CN1C(=O)C2CC=CCC2C1=O)Nc1ccc(OC(F)(F)F)cc1 (stereo not given) | inconclusive [activator, single point] | 
43 | CN(Cc1c(F)cccc1Cl)C(=O)c1ccc2ccccc2n1 | inactive | 
44 | COc1ccc(C2CC(c3ccc(Cl)cc3)=NN2C(C)=O)cc1 (stereo not given) | inconclusive [activator, partial curve] | 
45 | Cc1ccc(S(=O)(=O)N2C[C@@H]3c4ccccc4N(S(=O)(=O)c4ccc(C)cc4)[C@@H]3[C@@H](C)C2CC(=O)c2ccccc2)cc1 (stereo not given in full) | inconclusive [activator, single point] | 

From PubChem BioAssay AID652106 (National Center for Advancing Translational Sciences (NCATS), 2013)
